Measured values: PubChem BioAssay AID588342 (National Center for Advancing Translational Sciences (NCATS), 2011)
The whole screen tested about 360,000 compounds, of which about 25,000 (6.9%) were called active. This list was built around the results that the source calls inconclusive (neither active nor inactive); the mix of calls is not that of the screen. The call rests on the fitted dose curve; in most records, active means well fitted inhibition curve with a large enough effect; inconclusive means small, poorly fitted or top-dose-only effect; inactive means flat fitted curve, though single readings scatter. Where the call is inconclusive, the potency comes from a doubtful curve fit.
Further: nearly all actives have a fitted effect of over 55% in size.
Potency means the concentration at half of the fitted maximal effect; tags describe the fitted curve by direction and shape.

The molecules below were run against Luciferin 4-monooxygenase (Photinus pyralis) (UniProt P08659) (assay: qHTS profiling assay for firefly luciferase inhibitor/activator using purifed enzyme and Km concentrations of substrates (counterscreen for miR-21 project)). Details: purified FLuc, luminescence inhibition; series mostly up to 57.5 µM.
UniProt P08659, sequence (P08659 whole entry, looked up): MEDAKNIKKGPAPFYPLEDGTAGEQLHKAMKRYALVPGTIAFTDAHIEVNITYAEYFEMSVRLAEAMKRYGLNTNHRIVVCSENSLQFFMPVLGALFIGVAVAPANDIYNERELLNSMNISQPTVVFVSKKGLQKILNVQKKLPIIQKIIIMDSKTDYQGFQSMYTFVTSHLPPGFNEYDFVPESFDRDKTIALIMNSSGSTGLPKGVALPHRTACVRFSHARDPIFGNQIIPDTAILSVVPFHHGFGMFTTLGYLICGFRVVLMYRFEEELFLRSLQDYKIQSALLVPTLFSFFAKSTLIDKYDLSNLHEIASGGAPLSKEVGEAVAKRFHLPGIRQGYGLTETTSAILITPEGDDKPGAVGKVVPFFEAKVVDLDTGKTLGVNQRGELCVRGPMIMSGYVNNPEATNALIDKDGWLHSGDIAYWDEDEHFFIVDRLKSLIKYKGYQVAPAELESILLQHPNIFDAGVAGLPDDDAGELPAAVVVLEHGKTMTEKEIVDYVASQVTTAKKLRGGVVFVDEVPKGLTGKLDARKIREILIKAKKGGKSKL
In short: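 Purified P. pyralis luciferase, 10 nM final, with Km-level 10 uM D-luciferin and 10 uM ATP in 50 mM Tris acetate pH 7.5, 10 mM Mg acetate, 0.01% Tween-20, 0.05% BSA; 6-point qHTS titration about 60 µM downward; luminescence read.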
`CCn1c(/C=C\c2ccccc2C)nc2ccccc2c1=O` was tested, and the Potency was inconclusive: 37.9 µM [inhibitor, single point]. `C/C(CC(=O)Nc1ccccn1)=N\NC(=O)c1cccc(C)c1` was tested, and the Potency was inconclusive: 21.3 µM [inhibitor, partial curve, poor fit]. In the case of `COc1ccc(NC(=O)Nc2ccc(C)cc2Br)c(OC)c1`, the Potency is reported as “inactive”. With `O=C(O)c1cc2ccccc2c(N=Nc2cccnc2)c1O` the Potency was inconclusive: 26.9 µM [inhibitor, single point]. For `COc1cccc(/C=C/C(=O)OCC(=O)Nc2cc(S(=O)(=O)N3CCOCC3)ccc2C)c1`, the Potency was inconclusive: 21.3 µM [inhibitor, partial curve, poor fit]. With `CCOc1ccccc1/C=C/c1nc2ccccc2[nH]c1=O` the Potency was “inactive”. For `COc1cc([N+](=O)[O-])ccc1NC(=O)NCC1CCN(Cc2ccc(Cl)cc2)CC1`, the Potency was “inactive”. For `CC(=O)N1CC[n+]2c(-c3ccc([N+](=O)[O-])cc3)csc21`, the Potency was inconclusive: 10.7 µM [inhibitor, partial curve, poor fit]. With `CCOC(=O)c1c(C)[nH]c(C(=O)COc2ccc3c(c2)OCO3)c1C` the Potency was inconclusive: 7.57 µM [inhibitor, partial curve]. For `Cc1ccc(-n2ncc3c(NNC(=O)Cc4ccccc4)ncnc32)cc1`, the Potency was inconclusive: 37.9 µM [inhibitor, partial curve, poor fit]. With `O=C(Nc1ccc(-n2cccn2)cc1)C1CCCCN1Cc1cccc2c1OCO2` (configuration not stated) the Potency was “inactive”. For `COC(=O)c1[nH]c2cc(OC)ccc2c1N`, the Potency was inconclusive: 21.3 µM [inhibitor, single point]. With `C/C(=N\NC(=O)c1cccs1)c1c(O)cc(C)oc1=O` the Potency was inconclusive: 21.3 µM [inhibitor, partial curve]. In the case of `CCCn1c(=N)c(C(=O)NC2CCCC2)cc2c(=O)n3cc(C)ccc3nc21`, the Potency is reported as “inactive”. With `O=C(c1ccccc1)c1ccc(N2CCOCC2)c(F)c1` the Potency was active: 10.7 µM. In the case of `C[C@H](NC(=O)C1CCN(S(=O)(=O)c2ccccc2)CC1)C(=O)NCc1ccco1`, the Potency is reported as “inactive”. With `c1ccc(-c2cc(-c3ccccc3)c3c(n2)-c2ccccc2OC3)cc1` the Potency was inconclusive: 26.9 µM [inhibitor, partial curve, poor fit]. With `CN(CC(=O)Nc1ccc2c(c1)CCC2)CC(=O)Nc1ccccc1Br` the Potency was “inactive”. With `O/N=C/C1=C(Cl)c2ccccc2CC1` the Potency was inconclusive: 26.9 µM [inhibitor, partial curve, poor fit]. For `Cc1nc2ccc(S(=O)(=O)NC(C(=O)NCc3ccccc3Cl)C(C)C)cc2s1` (configuration not stated), the Potency was “inactive”. With `O=C(NCc1ccco1)c1cccc(Nc2nc3ccc(Br)cc3[nH]2)c1` the Potency was inconclusive: 21.3 µM [inhibitor, partial curve, poor fit]. With `CN(CC(=O)N1CCCC1)S(=O)(=O)c1cccc(Cl)c1` the Potency was “inactive”. In the case of `CCOC(=O)CSCc1nc(-c2ccc(Cl)cc2)oc1C`, the Potency is reported as active: 16.9 µM. In the case of `CCOn1c(=O)c(-c2cc3ccccc3o2)[n+]([O-])c2ccccc21`, the Potency is reported as inconclusive: 10.7 µM [inhibitor, partial curve]. For `CCOCCn1c(CN(Cc2ccccc2)Cc2ccccc2)nc2c1c(=O)[nH]c(=O)n2C`, the Potency was “inactive”. `CCc1nn(CC(=O)NCc2ccco2)c(=O)c2cc3cc(F)ccc3n12` was tested, and the Potency was “inactive”. With `CCOc1cc(/C=C2\SC(=O)N(CC(=O)Nc3ccccc3F)C2=O)cc([N+](=O)[O-])c1O` the Potency was inconclusive: 37.9 µM [inhibitor, single point]. For `Cc1cc(NCC2CCCCC2)nc2ccccc12`, the Potency was inconclusive: 26.9 µM [inhibitor, partial curve]. `COc1ccc(COc2cc(-c3cccc(OC)c3)nc3ccc(N)cc23)cc1` was tested, and the Potency was inconclusive: 21.3 µM [inhibitor, single point]. With `CCOc1ccc2[nH]c3ncccc3c(=O)c2c1` the Potency was inconclusive: 19 µM [inhibitor, partial curve, poor fit]. For `Cc1nc2ccc(NC(=O)c3cc([N+](=O)[O-])cc([N+](=O)[O-])c3Cl)cc2s1`, the Potency was active: 12 µM. `CN1CCN(C(=O)c2cn(-c3ccccc3)nc2-c2cccs2)CC1` was tested, and the Potency was inconclusive: 21.3 µM [inhibitor, partial curve, poor fit]. `Cc1cccc(OCC(=O)Nc2cccc(O)c2)c1` was tested, and the Potency was active: 16.9 µM. `COc1ccc(C(=O)/C=C/Nc2ccc(S(=O)(=O)Nc3ncccn3)cc2)cc1` was tested, and the Potency was inconclusive: 2.39 µM [inhibitor, full curve]. For `Cc1cccc(NC(=O)c2c(C)nc3ccccn23)c1`, the Potency was inconclusive: 37.9 µM [inhibitor, single point]. With `CCOCCC(=O)Nc1nnc(CCc2ccccc2)s1` the Potency was “inactive”. For `COC(=O)Nc1c(-c2ccccc2)nc2ccc(C)cn12`, the Potency was inconclusive: 23.9 µM [inhibitor, partial curve, poor fit]. With `Cc1nonc1NC(=O)c1oc2ccccc2c1C` the Potency was inconclusive: 26.9 µM [inhibitor, single point]. For `Cc1nc(-c2cccc(NC(=O)c3cccc(S(=O)(=O)N4CCCC4)c3)c2)cs1`, the Potency was inconclusive: 19 µM [inhibitor, partial curve]. In the case of `C=CCNc1ncnc2c1[nH]c1ccccc12`, the Potency is reported as inconclusive: 30.1 µM [inhibitor, single point]. In the case of `COc1nccnc1NS(=O)(=O)c1ccc(N=Cc2c(C)[nH]n(-c3ccc(Cl)cc3)c2=O)cc1`, the Potency is reported as inconclusive: 26.9 µM [inhibitor, single point]. With `Cc1ccc(NC(=O)COc2cccc3ccc(C)nc23)c(Br)c1` the Potency was “inactive”. With `COc1ccc(Nc2nc(N3CCCC3)c3ccccc3n2)cc1` the Potency was inconclusive: 37.9 µM [inhibitor, partial curve, poor fit]. For `Cc1ccnc(NC(=O)CNC(=O)Cc2cccc3ccccc23)c1`, the Potency was active: 23.9 µM. `Cc1ccc(/C=C(\C#N)C(=O)Nc2cccc3ncccc23)o1` was tested, and the Potency was inconclusive: 8.49 µM [inhibitor, partial curve, poor fit]. For `Cc1[nH]c(=O)[nH]c(=O)c1S(=O)(=O)Nc1cccc(Cl)c1C`, the Potency was “inactive”. With `Cc1ccc(Nc2nc(N)nc(CSC(=S)N3CCOCC3)n2)cc1` the Potency was active: 15.1 µM. For `COc1cc(-c2ccno2)ccc1S(=O)(=O)N1CCN(c2cccc(Cl)c2)CC1`, the Potency was “inactive”. For `O=C(Nc1ccc2c(c1)OCCO2)C1CCCN(c2ncccn2)C1` (configuration not stated), the Potency was active: 0.953 µM. In the case of `COc1ccc(S(=O)(=O)N2CCCCC2)cc1NC(=O)c1c(F)cccc1Cl`, the Potency is reported as “inactive”. For `COC(=O)C(C)(C)ONC(=O)Nc1ccc(Br)cc1`, the Potency was inconclusive: 26.9 µM [inhibitor, partial curve, poor fit]. `N#Cc1ccc(NCC(=O)Nc2ccc3c(c2)OCCO3)cc1` was tested, and the Potency was inconclusive: 23.9 µM [inhibitor, single point]. For `COc1ccccc1/C=N/NC(=O)c1ccccc1NS(=O)(=O)c1ccc(C)cc1`, the Potency was inconclusive: 26.9 µM [inhibitor, partial curve, poor fit]. In the case of `O=C(CSc1ccc(-c2ccco2)nn1)c1ccc(F)cc1`, the Potency is reported as inconclusive: 16.9 µM [inhibitor, partial curve]. `CC(=O)Nc1nc(C)c(-c2csc(Nc3ccc(S(N)(=O)=O)cc3)n2)s1` was tested, and the Potency was “inactive”. With `CCOC(=O)C1CCCN(C(=O)c2sc3nc(-c4ccc(OC)cc4)cn3c2C)C1` (configuration not stated) the Potency was inconclusive: 19 µM [inhibitor, partial curve]. For `O=C(CCC1CCCCC1)NCc1cccs1`, the Potency was inconclusive: 33.8 µM [inhibitor, single point]. `Cc1c(Cc2ccccc2)c(=O)oc2cc(OC(=O)c3ccccc3)ccc12` was tested, and the Potency was inconclusive: 12 µM [inhibitor, partial curve, poor fit]. With `O=C(Cn1ccc2cc(S(=O)(=O)N3CCCC3)ccc21)NCc1ccc(Cl)cc1` the Potency was “inactive”. `CCN(CC)c1ccc(NC(=O)CN2CCN(S(=O)(=O)c3ccc(C(C)C)cc3)CC2)cc1` was tested, and the Potency was “inactive”. `N#C/C(=N\Nc1ccccc1Cl)C(=O)c1ccccc1` was tested, and the Potency was inconclusive: 23.9 µM [inhibitor, single point]. `Cc1c(C(=O)N(C)c2ccc(Cl)cc2)cnn1-c1ccccc1` was tested, and the Potency was inconclusive: 26.9 µM [inhibitor, partial curve]. With `CCN(CC(=O)NCc1ccc(F)cc1)C(=O)c1cccnc1SC` the Potency was “inactive”. For `Cc1ccc(C)c(C(=O)COC(=O)c2ccccc2N2C(=O)C3C4CCC(C4)C3C2=O)c1` (configuration not stated), the Potency was active: 7.57 µM. In the case of `Nc1cccc(-c2nc3ccc(C(=O)c4ccccc4)cc3[nH]2)c1`, the Potency is reported as active: 0.757 µM. For `COC(=O)c1ccc(C2CC(=O)Nc3c2c(C)nn3-c2nc(C)cc(C)n2)cc1` (configuration not stated), the Potency was “inactive”. `N/C(=N\NC(=O)Nc1ccccc1)c1ccccn1` was tested, and the Potency was inconclusive: 21.3 µM [inhibitor, single point]. `O=C(Nc1ccc2c(c1)OCO2)c1ccc([N+](=O)[O-])cc1[N+](=O)[O-]` was tested, and the Potency was inconclusive: 23.9 µM [inhibitor, single point]. For `Cc1cccc(NC(=O)c2cc(-c3cccnc3)nc3c(C)cccc23)n1`, the Potency was inconclusive: 19 µM [inhibitor, single point]. With `O=C(Nc1cccc(NC(=O)c2cccs2)c1)c1ccc([N+](=O)[O-])o1` the Potency was inconclusive: 26.9 µM [inhibitor, partial curve, poor fit]. With `COc1ccc2nc(NC(=O)C3=NN(c4ccccc4)C(=O)CC3)sc2c1` the Potency was inconclusive: 26.9 µM [inhibitor, single point]. For `O=C(N/N=C/c1ccc2nccnc2c1)c1ccncc1`, the Potency was inconclusive: 23.9 µM [inhibitor, partial curve, poor fit].
